Results from the supplement of paper PMC8728848.
Some of the results follow.

Tests used:
Test in all cases: glycan array binding signal (z-score within array); higher = stronger binding
Details in all cases: glycan notation: IUPAC condensed, linker removed
[1] = molecular target: Gal(b1-4)GlcNAc(b1-3)Gal(b1-4)GlcNAc(b1-3)GalNAc
Procedure, shortened: (§1)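 Glycan array data came from 3228 arrays in the Consortium for Functional Glycomics database, and only arrays with an available protein sequence were kept. Glycan names were put into IUPAC-condensed notation, and columns mapping to the same glycan were averaged. The binding signal is a within-array Z-score, averaged across arrays of one protein sequence run at different concentrations or buffers and across linkers. A negative Z-score can be read as non-binding.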

[2] = molecular target: Gal(b1-4)GlcNAc(b1-3)Gal(b1-4)GlcNAc(b1-3)[Gal(b1-4)GlcNAc(b1-3)Gal(b1-4)GlcNAc(b1-6)]GalNAc
Procedure, shortened: as §1

[3] = molecular target: Gal(b1-4)GlcNAc(b1-3)Gal(b1-4)GlcNAc(b1-6)[Gal(b1-3)]GalNAc
Procedure, shortened: as §1

[4] = molecular target: Gal(b1-4)GlcNAc(b1-3)Gal(b1-4)[Fuc(a1-3)GlcNAc(b1-6)]Gal(b1-4)Glc
Procedure, shortened: as §1

[5] = molecular target: Gal(b1-4)GlcNAc(b1-3)Gal(b1-4)[Fuc(a1-3)]GlcNAc(b1-3)Gal(b1-4)[Fuc(a1-3)]GlcNAc
Procedure, shortened: as §1

[6] = molecular target: Gal(b1-4)GlcNAc(b1-3)GalNAc
Procedure, shortened: as §1

[7] = molecular target: Gal(b1-4)GlcNAc(b1-3)[Fuc(a1-3)GlcNAc(b1-6)]Gal(b1-4)Glc
Procedure, shortened: as §1

[8] = molecular target: Gal(b1-4)GlcNAc(b1-3)[Gal(b1-4)GlcNAc(b1-6)]Gal(b1-4)GlcNAc
Procedure, shortened: as §1

[9] = molecular target: Gal(b1-4)GlcNAc(b1-3)[Gal(b1-4)GlcNAc(b1-6)]GalNAc
Procedure, shortened: as §1

[10] = molecular target: Gal(b1-4)GlcNAc(b1-3)[GlcNAc(b1-6)]Gal(b1-4)GlcNAc
Procedure, shortened: as §1

[11] = molecular target: Gal(b1-4)GlcNAc(b1-6)Gal(b1-4)GlcNAc
Procedure, shortened: as §1

[12] = molecular target: Gal(b1-4)GlcNAc(b1-6)Gal(b1-4)GlcNAc(b1-6)GalNAc
Procedure, shortened: as §1

[13] = molecular target: Gal(b1-4)GlcNAc(b1-6)GalNAc
Procedure, shortened: as §1

[14] = molecular target: Gal(b1-4)GlcNAc(b1-6)[Gal(b1-3)]GalNAc
Procedure, shortened: as §1

[15] = molecular target: Gal(b1-4)GlcNAc(b1-6)[Gal(b1-4)GlcNAc(b1-3)]GalNAc
Procedure, shortened: as §1

Gal(b1-4)GlcNAc6P = molecular target: Gal(b1-4)GlcNAc6P
Procedure, shortened: as §1

Gal(b1-6)Gal = molecular target: Gal(b1-6)Gal
Procedure, shortened: as §1

Gal3S(b1-3)GalNAc = molecular target: Gal3S(b1-3)GalNAc
Procedure, shortened: as §1

Gal3S(b1-3)GlcNAc = molecular target: Gal3S(b1-3)GlcNAc
Procedure, shortened: as §1

[16] = molecular target: Gal3S(b1-3)[Fuc(a1-4)]GlcNAc
Procedure, shortened: as §1

Gal3S(b1-4)Glc = molecular target: Gal3S(b1-4)Glc
Procedure, shortened: as §1

Gal3S(b1-4)Glc6S = molecular target: Gal3S(b1-4)Glc6S
Procedure, shortened: as §1

Gal3S(b1-4)GlcNAc = molecular target: Gal3S(b1-4)GlcNAc
Procedure, shortened: as §1

Gal3S(b1-4)GlcNAc6S = molecular target: Gal3S(b1-4)GlcNAc6S
Procedure, shortened: as §1

[17] = molecular target: Gal3S(b1-4)[Fuc(a1-3)]Glc
Procedure, shortened: as §1

[18] = molecular target: Gal3S(b1-4)[Fuc(a1-3)]Glc6S
Procedure, shortened: as §1

[19] = molecular target: Gal3S(b1-4)[Fuc(a1-3)]GlcNAc
Procedure, shortened: as §1

[20] = molecular target: Gal3S(b1-4)[Fuc(a1-3)]GlcNAc6S
Procedure, shortened: as §1

Gal3S4S(b1-4)GlcNAc = molecular target: Gal3S4S(b1-4)GlcNAc
Procedure, shortened: as §1

Gal3S6S(b1-4)GlcNAc = molecular target: Gal3S6S(b1-4)GlcNAc
Procedure, shortened: as §1

Gal3S6S(b1-4)GlcNAc6S = molecular target: Gal3S6S(b1-4)GlcNAc6S
Procedure, shortened: as §1

Gal4S(b1-4)GlcNAc = molecular target: Gal4S(b1-4)GlcNAc
Procedure, shortened: as §1

Gal4S6S(b1-4)GlcNAc = molecular target: Gal4S6S(b1-4)GlcNAc
Procedure, shortened: as §1

Gal6P(b1-4)GlcNAc = molecular target: Gal6P(b1-4)GlcNAc
Procedure, shortened: as §1

Gal6S(b1-3)GlcNAc = molecular target: Gal6S(b1-3)GlcNAc
Procedure, shortened: as §1

Gal6S(b1-3)GlcNAc6S = molecular target: Gal6S(b1-3)GlcNAc6S
Procedure, shortened: as §1

Gal6S(b1-4)Glc = molecular target: Gal6S(b1-4)Glc
Procedure, shortened: as §1

Gal6S(b1-4)Glc6S = molecular target: Gal6S(b1-4)Glc6S
Procedure, shortened: as §1

Gal6S(b1-4)GlcNAc = molecular target: Gal6S(b1-4)GlcNAc
Procedure, shortened: as §1

Gal6S(b1-4)GlcNAc6S = molecular target: Gal6S(b1-4)GlcNAc6S
Procedure, shortened: as §1

GalNAc(a1-3)Gal = molecular target: GalNAc(a1-3)Gal
Procedure, shortened: as §1

GalNAc(a1-3)GalNAc = molecular target: GalNAc(a1-3)GalNAc
Procedure, shortened: as §1

[21] = molecular target: GalNAc(a1-3)GalNAc(a1-3)Gal(a1-4)Gal(b1-4)GlcNAc
Procedure, shortened: as §1

[22] = molecular target: GalNAc(a1-3)GalNAc(b1-3)Gal(a1-4)Gal(b1-4)Glc
Procedure, shortened: as §1

[23] = molecular target: GalNAc(a1-3)GalNAc(b1-3)Gal(a1-4)Gal(b1-4)GlcNAc
Procedure, shortened: as §1

B1: HPA (Helix pomatia), Q575S3 (protein)
chain: MWAHLTGLLLICALSLSAAQRAQTGEIDCGSDSSWPKDPSDNPNRDNTREIVKHVTFSPQFCREPKVILSVTTLDAEHTKNLRYEARLKSVSPSGLSASCYSWHDGTIYRMKLSWLAVED
[1]
  glycan array binding signal (z-score): -0.192
[2]
  glycan array binding signal (z-score): -0.189
[3]
  glycan array binding signal (z-score): -0.216
[4]
  glycan array binding signal (z-score): -0.224
[5]
  glycan array binding signal (z-score): -0.27
[6]
  glycan array binding signal (z-score): -0.26
[7]
  glycan array binding signal (z-score): -0.23
[8]
  glycan array binding signal (z-score): -0.273
[9]
  glycan array binding signal (z-score): -0.252
[10]
  glycan array binding signal (z-score): -0.269
[11]
  glycan array binding signal (z-score): -0.271
[12]
  glycan array binding signal (z-score): -0.312
[13]
  glycan array binding signal (z-score): -0.256
[14]
  glycan array binding signal (z-score): -0.266
[15]
  glycan array binding signal (z-score): -0.245
Gal(b1-4)GlcNAc6P
  glycan array binding signal (z-score): -0.258
Gal(b1-6)Gal
  glycan array binding signal (z-score): -0.241
Gal3S(b1-3)GalNAc
  glycan array binding signal (z-score): 0.169
Gal3S(b1-3)GlcNAc
  glycan array binding signal (z-score): -0.253
[16]
  glycan array binding signal (z-score): -0.26
Gal3S(b1-4)Glc
  glycan array binding signal (z-score): -0.259
Gal3S(b1-4)Glc6S
  glycan array binding signal (z-score): -0.257
Gal3S(b1-4)GlcNAc
  glycan array binding signal (z-score): -0.254
Gal3S(b1-4)GlcNAc6S
  glycan array binding signal (z-score): -0.265
[17]
  glycan array binding signal (z-score): -0.2
[18]
  glycan array binding signal (z-score): -0.229
[19]
  glycan array binding signal (z-score): -0.251
[20]
  glycan array binding signal (z-score): -0.252
Gal3S4S(b1-4)GlcNAc
  glycan array binding signal (z-score): -0.266
Gal3S6S(b1-4)GlcNAc
  glycan array binding signal (z-score): -0.266
Gal3S6S(b1-4)GlcNAc6S
  glycan array binding signal (z-score): -0.255
Gal4S(b1-4)GlcNAc
  glycan array binding signal (z-score): -0.267
Gal4S6S(b1-4)GlcNAc
  glycan array binding signal (z-score): -0.268
Gal6P(b1-4)GlcNAc
  glycan array binding signal (z-score): -0.251
Gal6S(b1-3)GlcNAc
  glycan array binding signal (z-score): -0.249
Gal6S(b1-3)GlcNAc6S
  glycan array binding signal (z-score): -0.242
Gal6S(b1-4)Glc
  glycan array binding signal (z-score): -0.265
Gal6S(b1-4)Glc6S
  glycan array binding signal (z-score): -0.259
Gal6S(b1-4)GlcNAc
  glycan array binding signal (z-score): -0.26
Gal6S(b1-4)GlcNAc6S
  glycan array binding signal (z-score): -0.188
GalNAc(a1-3)Gal
  glycan array binding signal (z-score): 4.18
GalNAc(a1-3)GalNAc
  glycan array binding signal (z-score): 4.53
[21]
  glycan array binding signal (z-score): 5.04
[22]
  glycan array binding signal (z-score): 3.7
[23]
  glycan array binding signal (z-score): 5.7
